Laboratory results as given in PubChem BioAssay AID1631 (National Center for Advancing Translational Sciences (NCATS), 2009).
About 890 (0.34%) of roughly 260,000 compounds were called active. The shares of active, inactive and inconclusive entries below differ from those in the screen. The call rests on the fitted dose curve; in most records, active means well fitted activation curve with a large enough effect; inconclusive means small, poorly fitted or top-dose-only effect; inactive means no such curve, though single readings can be large or run the other way. Potencies of inconclusive entries are left out as doubtful fits.

Biological target: Pyruvate kinase PKM (Homo sapiens) (UniProt P14618)
Assay: qHTS Assay for Activators of Human Muscle isoform 2 Pyruvate Kinase; further: nearly all actives have a fitted effect of over 55% in size
Details: purified PKM2, Kinase-Glo ATP luminescence; Potency: activation; activation: at 57.5 µM (top of the series), 0% is enzyme alone, no compound
Text: NIH Chemical Genomics Center [NCGC] Matthew G. Vander Heiden, M.D., Ph.D. [Harvard Medical School, 77 Avenue Louis Pasteur, Boston, MA 02115] MLPCN Grant: 1 R03 MH085679-01 NCGC Assay Overview: Human pyruvate kinase muscle 2 (hPK-M2) enzyme was supplied as a highly purified (>95% pure) preparation from Harvard Medical School and assayed for its ability to generate ATP from ADP using phosphoenolpyruvate (PEP) as a substrate. ATP generation was detected in a coupled reaction by luciferase-mediated luminescence, an ATP-dependent process. […] The enzyme was assayed at an intermediate level of activity to screen for both inhibitors and activators.
NCGC Assay Protocol Summary: Three uL of substrate mix (at r.t.) in assay buffer (50 mM Imidazole pH7.2, 50 mM KCl, 7 mM MgCl2, 0.01% Tween 20, 0.05% BSA) was dispensed into white solid bottom 1,536 well microtiter plates so that the final concentrations of substrates in the assay were 0.1 mM ADP and 0.5 mM PEP. 23 nL of compound were delivered by a pin tool and 1 uL of enzyme mix in assay buffer (4 degree Celsius) was added. Plates were incubated at room temperature for 1 hour. Two uL of detection mix (Kinase-Glo, Promega; at 4 degree Celsius protected from light) was added and luminescence read by a ViewLux (Perkin Elmer) at 5 second exposure/plate. Data were normalized to the uninhibited and AC100 inhibition (no enzyme). […]
Potency means the concentration at half of the fitted maximal effect; tags describe the fitted curve by direction and shape.

UniProt P14618, sequence (P14618 whole entry, looked up, canonical isoform): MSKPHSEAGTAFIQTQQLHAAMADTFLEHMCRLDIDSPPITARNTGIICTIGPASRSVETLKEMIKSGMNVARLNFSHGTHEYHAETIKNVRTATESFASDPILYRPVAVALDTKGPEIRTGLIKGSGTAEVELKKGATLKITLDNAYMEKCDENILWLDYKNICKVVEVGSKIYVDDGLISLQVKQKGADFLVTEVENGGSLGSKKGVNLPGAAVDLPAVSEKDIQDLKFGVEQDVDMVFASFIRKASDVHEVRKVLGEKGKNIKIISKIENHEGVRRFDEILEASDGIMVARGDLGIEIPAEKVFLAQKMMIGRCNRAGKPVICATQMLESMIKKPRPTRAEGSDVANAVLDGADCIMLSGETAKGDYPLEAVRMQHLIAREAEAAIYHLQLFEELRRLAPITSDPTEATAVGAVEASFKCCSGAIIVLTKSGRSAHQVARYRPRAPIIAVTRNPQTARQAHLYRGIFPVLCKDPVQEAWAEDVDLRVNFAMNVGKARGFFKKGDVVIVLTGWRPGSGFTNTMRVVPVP

SMILES | Potency
O=C(O)COc1ccccc1/C=N/NC(=O)CSc1nnc(SCc2cccc3ccccc23)s1 | inconclusive [rising, single point]
